T1: PRYSPRY domain of mouse TRIM21 with N-terminal 6xHis tag (mouse)
T1 construct: Expressed in E. coli; also called mTRIM21; mouse TRIM21.PRYSPRY
T1 chain: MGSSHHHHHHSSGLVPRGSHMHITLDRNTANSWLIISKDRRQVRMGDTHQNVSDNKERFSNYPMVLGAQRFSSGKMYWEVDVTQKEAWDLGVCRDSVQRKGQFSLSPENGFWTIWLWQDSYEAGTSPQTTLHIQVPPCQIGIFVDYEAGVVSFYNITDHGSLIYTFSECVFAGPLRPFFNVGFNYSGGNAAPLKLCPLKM

T2: PRYSPRY domain of human TRIM21 with N-terminal 6xHis tag (human)
T2 construct: Expressed in E. coli; also called hTRIM21; human TRIM21.PRYSPRY
T2 chain: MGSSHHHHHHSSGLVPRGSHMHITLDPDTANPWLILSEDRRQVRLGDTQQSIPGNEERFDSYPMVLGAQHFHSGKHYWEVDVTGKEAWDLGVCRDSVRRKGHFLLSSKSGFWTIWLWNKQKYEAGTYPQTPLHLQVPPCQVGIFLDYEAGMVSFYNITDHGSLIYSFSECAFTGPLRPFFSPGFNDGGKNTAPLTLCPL

B1: MRAH-G1d/MRAL-KT0 D312F (antibody, human IgG1, kappa)
heavy: QVQLQESGPGLVRPSQTLSLTCTVSGYSITSDHAWSWVRQPPGRGLEWIGYISYSGITTYNPSLKSRVTMLRDTSKNQFSLRLSSVTAADTAVYYCARSLARTTAMDYWGQGSLVTVSS[human IgG1 constant region with D312F (EU numbers) omitted here]
light: DIQMTQSPSSLSASVGDRVTITCRASQDISSYLNWYQQKPGKAPKLLIYYTSRLHSGVPSRFSGSGSGTDFTFTISSLQPEDIATYYCQQGNTLPYTFGQGTKVEIKRTVAAPSVFIFPPSDEQLKSGTASVVCLLNNFYPREAKVQWKVDNALQSGNSQESVTEQDSKDSTYSLSSTLTLSKADYEKHKVYACEVTHQGLSSPVTKSFNRGEC
notes: copies: 2 + 2
B2: MRAH-G1d/MRAL-KT0 D312G (antibody, human IgG1, kappa)
heavy: QVQLQESGPGLVRPSQTLSLTCTVSGYSITSDHAWSWVRQPPGRGLEWIGYISYSGITTYNPSLKSRVTMLRDTSKNQFSLRLSSVTAADTAVYYCARSLARTTAMDYWGQGSLVTVSS[human IgG1 constant region with D312G (EU numbers) omitted here]
light: B1 light
notes: copies: 2 + 2
B3: MRAH-G1d/MRAL-KT0 D312M (antibody, human IgG1, kappa)
heavy: QVQLQESGPGLVRPSQTLSLTCTVSGYSITSDHAWSWVRQPPGRGLEWIGYISYSGITTYNPSLKSRVTMLRDTSKNQFSLRLSSVTAADTAVYYCARSLARTTAMDYWGQGSLVTVSS[human IgG1 constant region with D312M (EU numbers) omitted here]
light: B1 light
notes: copies: 2 + 2
B4: MRAH-G1d/MRAL-KT0 E345P (antibody, human IgG1, kappa)
heavy: QVQLQESGPGLVRPSQTLSLTCTVSGYSITSDHAWSWVRQPPGRGLEWIGYISYSGITTYNPSLKSRVTMLRDTSKNQFSLRLSSVTAADTAVYYCARSLARTTAMDYWGQGSLVTVSS[human IgG1 constant region with E345P (EU numbers) omitted here]
light: B1 light
B5: MRAH-G1d/MRAL-KT0 E345R (antibody, human IgG1, kappa)
heavy: QVQLQESGPGLVRPSQTLSLTCTVSGYSITSDHAWSWVRQPPGRGLEWIGYISYSGITTYNPSLKSRVTMLRDTSKNQFSLRLSSVTAADTAVYYCARSLARTTAMDYWGQGSLVTVSS[human IgG1 constant region with E345R (EU numbers) omitted here]
light: B1 light
B6: MRAH-G1d/MRAL-KT0 E345S (antibody, human IgG1, kappa)
heavy: QVQLQESGPGLVRPSQTLSLTCTVSGYSITSDHAWSWVRQPPGRGLEWIGYISYSGITTYNPSLKSRVTMLRDTSKNQFSLRLSSVTAADTAVYYCARSLARTTAMDYWGQGSLVTVSS[human IgG1 constant region with E345S (EU numbers) omitted here]
light: B1 light
B7: MRAH-G1d/MRAL-KT0 D312N (antibody, human IgG1, kappa)
heavy: QVQLQESGPGLVRPSQTLSLTCTVSGYSITSDHAWSWVRQPPGRGLEWIGYISYSGITTYNPSLKSRVTMLRDTSKNQFSLRLSSVTAADTAVYYCARSLARTTAMDYWGQGSLVTVSS[human IgG1 constant region with D312N (EU numbers) omitted here]
light: B1 light
notes: copies: 2 + 2
B8: MRAH-G1d/MRAL-KT0 D312L (antibody, human IgG1, kappa)
heavy: QVQLQESGPGLVRPSQTLSLTCTVSGYSITSDHAWSWVRQPPGRGLEWIGYISYSGITTYNPSLKSRVTMLRDTSKNQFSLRLSSVTAADTAVYYCARSLARTTAMDYWGQGSLVTVSS[human IgG1 constant region with D312L (EU numbers) omitted here]
light: B1 light
notes: copies: 2 + 2
B9: MRAH-G1d/MRAL-KT0 D312Y (antibody, human IgG1, kappa)
heavy: QVQLQESGPGLVRPSQTLSLTCTVSGYSITSDHAWSWVRQPPGRGLEWIGYISYSGITTYNPSLKSRVTMLRDTSKNQFSLRLSSVTAADTAVYYCARSLARTTAMDYWGQGSLVTVSS[human IgG1 constant region with D312Y (EU numbers) omitted here]
light: B1 light
notes: copies: 2 + 2
B10: MRAH-G1d/MRAL-KT0 E345L (antibody, human IgG1, kappa)
heavy: QVQLQESGPGLVRPSQTLSLTCTVSGYSITSDHAWSWVRQPPGRGLEWIGYISYSGITTYNPSLKSRVTMLRDTSKNQFSLRLSSVTAADTAVYYCARSLARTTAMDYWGQGSLVTVSS[human IgG1 constant region with E345L (EU numbers) omitted here]
light: B1 light
B11: MRAH-G1d/MRAL-KT0 D312H (antibody, human IgG1, kappa)
heavy: QVQLQESGPGLVRPSQTLSLTCTVSGYSITSDHAWSWVRQPPGRGLEWIGYISYSGITTYNPSLKSRVTMLRDTSKNQFSLRLSSVTAADTAVYYCARSLARTTAMDYWGQGSLVTVSS[human IgG1 constant region with D312H (EU numbers) omitted here]
light: B1 light
notes: copies: 2 + 2
B12: MRAH-G1d/MRAL-KT0 E345M (antibody, human IgG1, kappa)
heavy: QVQLQESGPGLVRPSQTLSLTCTVSGYSITSDHAWSWVRQPPGRGLEWIGYISYSGITTYNPSLKSRVTMLRDTSKNQFSLRLSSVTAADTAVYYCARSLARTTAMDYWGQGSLVTVSS[human IgG1 constant region with E345M (EU numbers) omitted here]
light: B1 light
B13: MRAH-G1d/MRAL-KT0 D312W (antibody, human IgG1, kappa)
heavy: QVQLQESGPGLVRPSQTLSLTCTVSGYSITSDHAWSWVRQPPGRGLEWIGYISYSGITTYNPSLKSRVTMLRDTSKNQFSLRLSSVTAADTAVYYCARSLARTTAMDYWGQGSLVTVSS[human IgG1 constant region with D312W (EU numbers) omitted here]
light: B1 light
notes: copies: 2 + 2
B14: MRAH-G1d/MRAL-KT0 D312S (antibody, human IgG1, kappa)
heavy: QVQLQESGPGLVRPSQTLSLTCTVSGYSITSDHAWSWVRQPPGRGLEWIGYISYSGITTYNPSLKSRVTMLRDTSKNQFSLRLSSVTAADTAVYYCARSLARTTAMDYWGQGSLVTVSS[human IgG1 constant region with D312S (EU numbers) omitted here]
light: B1 light
notes: copies: 2 + 2

Target: T1, PRYSPRY domain of mouse TRIM21 with …
Assay: SPR, Protein L capture

| mTRIM21 binding level ratio (variant/control antibody) | Binder |
| --- | --- |
| 2.86 | B1 |
| 2.73 | B2 |
| 2.76 | B3 |
| 2.41 | B4 |
| 2.37 | B5 |
| 2.88 | B6 |
| 2.58 | B7 |
| 1.99 | B8 |
| 2.9 | B9 |
| 2.36 | B10 |
| 2.86 | B11 |
| 2.74 | B12 |
| 2.67 | B13 |
| 2.53 | B14 |

target: T3, human FcRn (human, UniProt P55899 fragment; P61769 fragment, limits assumed); assay: SPR, Protein L capture
T3 construct: also called hFcRn

| hFcRn binding level ratio (variant/control antibody) | Binder |
| --- | --- |
| 0.12 | B1 |
| 0.91 | B2 |
| 0.78 | B3 |
| 0.88 | B4 |
| 0.76 | B5 |
| 0.9 | B6 |
| 0.24 | B7 |
| 0.03 | B8 |
| 0.06 | B9 |
| 0.86 | B10 |
| 0.85 | B11 |
| 0.13 | B12 |
| 0.04 | B13 |
| 1.05 | B14 |

Target: T2, PRYSPRY domain of human TRIM21 with …
Assay: SPR, Protein L capture

| hTRIM21 binding level ratio (variant/control antibody) | Binder |
| --- | --- |
| 1.24 | B1 |
| 1.14 | B2 |
| 1.09 | B3 |
| 0.53 | B4 |
| 0.073 | B5 |
| 0.989 | B6 |
| 1.08 | B7 |
| 0.769 | B8 |
| 1.27 | B9 |
| 0.459 | B10 |
| 1.29 | B11 |
| 0.638 | B12 |
| 1.25 | B13 |
| 1.14 | B14 |

— US20210238308A1 (Chugai, published 2021)
